Results on 1 molecule are retold here after patent publication US20240400644A1 (ACROIMMUNE GUANGZHOU BIOTECH, published 2024).

The assay deals with T1, biotinylated human Siglec10 (His- and Avi-tagged) (human, UniProt Q96LC7 17-546, limits assumed, biotinylated (Avi tag)).
T1 construct: Bought, HEK293 cell derived; immobilised on streptavidin biosensors; also called AcroBiosystems SIO-H82E3; not shown: His tag and Avi tag
T1 sequence (looked up): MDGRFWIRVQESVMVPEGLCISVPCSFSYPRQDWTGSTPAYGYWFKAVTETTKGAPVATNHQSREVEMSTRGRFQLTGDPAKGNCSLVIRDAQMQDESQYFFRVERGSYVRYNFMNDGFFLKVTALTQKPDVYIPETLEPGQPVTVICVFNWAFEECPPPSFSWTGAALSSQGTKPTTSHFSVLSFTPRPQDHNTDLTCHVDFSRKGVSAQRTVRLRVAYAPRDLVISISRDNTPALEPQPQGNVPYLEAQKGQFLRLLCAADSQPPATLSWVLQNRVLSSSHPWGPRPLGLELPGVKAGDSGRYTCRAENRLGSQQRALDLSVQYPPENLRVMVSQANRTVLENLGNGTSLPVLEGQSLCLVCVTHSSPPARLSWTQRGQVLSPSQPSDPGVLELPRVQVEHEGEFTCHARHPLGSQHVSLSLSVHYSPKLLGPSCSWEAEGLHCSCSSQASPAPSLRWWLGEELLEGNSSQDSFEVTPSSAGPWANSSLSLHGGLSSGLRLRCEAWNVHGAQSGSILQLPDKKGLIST
Put plainly: BLI (Fortebio BLITZ), biotinylated Siglec10 on streptavidin sensors. The protocol:
A Fortebio based biolayer interferometry assay (BLI) was used to further analyze the binding kinetics of AI-07 fusion protein to human Siglec10. For this propose, streptavidin-coated biosensor tubes (Sartoris Octet SA biosensors, Cat. 18-0009) were incubated with biotinylated human Siglec10 (AcroBiosystems, HEK293 cell derived, His- and Avi-tagged, SIO-H82E3) at 2 μg/mL in binding buffer (1×PBS with 1 mM MgCl2, 3 mM CaCl2) at room temperature for 10 mins. After balanced with binding buffer, analytes of different concentrations of AI-071 or human IgG-Fc control protein were loaded into individual biosensor tube and the binding kinetic curves (association and dis-association) were recorded in Fortebio-BLITZ instrument.
(In general: Biolayer interferometry detects binding as a change in optical thickness at a sensor tip.)

One may read the Kd as the equilibrium constant for the complex coming apart. Read a low Kd as tighter binding. The term koff denotes a measure of how fast the partners let go of each other. A higher koff goes with a short-lived complex. The term kon denotes the second-order rate constant of association. Lower therefore signals slow association.

B1: AI-071 fusion protein (Fc fusion)
chain: STSNSGLAPNPTSTSNSGLAPNPTSTSNSGLAPNPTSTSNSGLAPNPTSTSNSGLAPNPT[human IgG1 Fc skipped]
notes: Disulfide-linked homodimer; Used biotin-labeled in the Siglec panel ELISA; also called AI-071 Fc-fusion protein; AI-71
In turn, B1 registered a dissociation constant Kd of 30 nM, a koff of 0.000125 s⁻¹ and a kon of 4160 M⁻¹ s⁻¹.
